According to PubChem BioAssay AID1963576 (National Center for Advancing Translational Sciences (NCATS), 2024):
In all, about 46,000 compounds went through this assay and about 60 (0.1%) were called active. Not shown: some 3% with an inconclusive outcome. Calls follow the shape of the dose curve; as a rule, active = well fitted inhibition curve with a large enough effect; inconclusive = small, poorly fitted or top-dose-only effect; inactive = no such curve, though single readings can be large or run the other way. The list shows a part of the results.

Experiment: Primary qHTS assay for Inhibitors of ovarian cancer metastasis using an organotypic tumor microenvironment (TME) model. Also: nearly all actives have a fitted effect of over 65% in size.
Settings: SKOV3ip1-GFP adhesion/invasion on 3D omental model, fluorescence; series mostly up to 45.8 µM; activity change, negative = inhibition: at the top concentration
Source text: PI: Ernst Lengyel MD., Ph.D. Department of Obstetrics and Gynecology, Section of Gynecologic Oncology University of Chicago Medicine, Chicago, Illinois. The tumor microenvironment (TME) is a key determinant of metastatic efficiency. We performed a quantitative high-throughput screen (qHTS) of diverse medicinal chemistry tractable scaffolds (44,420 compounds) and pharmacologically active small molecules (386 compounds) using a layered organotypic, robust assay representing the ovarian cancer metastatic TME. This 3D model contains primary human mesothelial cells, fibroblasts, and extracellular matrix, to which fluorescently labeled ovarian cancer cells are added. Initially, 100 compounds inhibiting ovarian cancer adhesion/invasion to the 3D model in a dose-dependent manner were identified. Of those, eight compounds were confirmed active in five high-grade serous ovarian cancer cell lines and were further validated in secondary in vitro and in vivo biological assays. […] Specifically, NCGC00117362 and PP-121 inhibited ovarian cancer adhesion, invasion, and proliferation, whereas milciclib inhibited ovarian cancer invasion and proliferation. […] To evaluate the clinical potential of NCGC00117362, structure - activity relationship studies were performed. […] The three compounds identified have promise as therapeutics for prevention and treatment of ovarian cancer metastasis.
PROTOCOL TABLE (as described by Inglese J, Shamu CE and Guy RK. 2007) SEQUENCE No. (e.g., 1, 2, 3, etc.); […] (e.g., Cells, Incubation, Reagent, etc.); VALUE; DESCRIPTION. 1; Cells; 4 uL; primary human omental fibroblast, black, clear bottom, low base, 1536-well Aurora assay plate. 2; Incubation; 48 hr; 37C. 3; Cells; 3 uL; 1,200 SKOV3ip1-GFP cells. 4; Compounds; 23nL; acoustic dispenser. 5; Incubation; 2 hr; room temperature. 6; Incubation; 16 hr; 37C. 7; Wash; 5 uL; 1x PBS. 8; Fixing; 5 uL; 4% paraformaldehyde (PFA). 9; Incubation; 15 min; room temperature 10; Wash, 5 uL; 1x PBS. 11; Detection; Fluorescence, excitation filter 488 nm, emission filter 509 nm. NOTES (numbers refer to Sequence numbers above) 1. For the 1,536-well format, 40 primary human omental fibroblasts and 400 mesothelial cells were seeded with 0.02 µg fibronectin and 0.02 µg collagen type I in 4 µL of growth media (2.3 mm2; Supplementary Fig. S1A). 2. Assay plates were incubated for 48 hours at 37 C. 3. After incubation, 1,200 SKOV3ip1-GFP were seeded in 3 µL of serum-free media (growth media minus FBS) on top of primary human omental cells. 4. Compounds or controls were added to each well immediately after the addition of the cancer cells. Compounds were screened in four doses (0.36-46 µmol/L), and the plates contained the positive control (Tomatine) in eight doses (0.035-75 µmol/L) and DMSO (equal volume controls) 5 - 6. The plates were incubated at room temperature for 2 hours and then at 37 degrees C for 16 hours. 7 - 10. Following incubation, the media were aspirated and each well washed with PBS (5 µL) and then fixed with 4% paraformaldehyde (PFA; 5 µL). After 15 minutes, the PFA solution was aspirated, PBS (5 µL) was added. 11. The number of GFP-labeled cells analyzed using a fluorescent cytometer TTP LabTech Acumen eX3 using 488 nm excitation filter and 509 nm emission filter. Data was normalized to the DMSO treated for negative and Tomatine treated wells for positive control. REFERENCES: Inglese J, Shamu CE and Guy RK, Reporting data from high throughput screening of small molecule libraries, Nature Chemical Biology, 2007, 3(8): 438-441. doi.org/10.1038/nchembio0807-438. Yasgar A, Shinn P, Jadhav A, Auld DS, Michael S, Zheng W, Austin CP, Inglese J and Simeonov A, Compound Management for Quantitative High-Throughput Screening. J. Assoc. Lab. Auto., 2008, 13: 79-89. doi: 10.1016/j.jala.2007.12.004.
In the case of `Cc1ccc2c(c1)c1c(c(=O)n(-c3cccc(Cl)c3)c(=O)n1C)n2C`, the “activity change, negative = inhibition” value is reported as inactive: -8.42%. With `COc1ccc(C(=O)c2oc3ccccc3c2NC(=O)c2nc(SC)ncc2Cl)cc1Cl` the “activity change, negative = inhibition” value was inactive: -4.39%. For `O=C1CN(C(=O)COc2ccc(Cl)cc2Cl)C(c2ccc(F)cc2)c2cc(F)ccc2N1` (stereo not drawn), the “activity change, negative = inhibition” value was inactive: 7.44%. For `CCOC(=O)c1c(NC(=O)c2cc3nc(-c4ccc(OC)cc4)cc(C(F)(F)F)n3n2)sc(C)c1C`, the “activity change, negative = inhibition” value was inactive: -6.78%. In the case of `CCc1cccc(NC(=O)c2c(C)oc3ncnc(N4CCCCC4)c23)c1`, the “activity change, negative = inhibition” value is reported as inactive: 15.6%. For `CCN(CC)C(=O)CSc1nnc2[nH]c(=O)cc(C)n12`, the “activity change, negative = inhibition” value was inactive: 4.07%. In the case of `CC(C)c1ccc(Nc2cc(C(=O)NCc3cccs3)c3ccccc3n2)cc1`, the “activity change, negative = inhibition” value is reported as inactive: -24.3%. With `CCOC(=O)c1nnn(C(CC)C(=O)Nc2c(C)cccc2C)c1C(=O)OCC` (stereo not drawn) the “outcome” value was “inactive”. For `CCOC(=O)N1CCc2c(sc(NCc3cccs3)c2C(=O)Nc2cc(OC)ccc2OC)C1`, the “activity change, negative = inhibition” value was inactive: 7.61%. For `CCOc1ccc2nc(N3CCCC(C(=O)NCc4ccc(OC)cc4)C3)sc2c1` (stereo not drawn), the “activity change, negative = inhibition” value was inactive: -7.69%. In the case of `CCNc1nc(Oc2ccc(OCC(=O)OC)nn2)nc(N2CCOCC2)n1`, the “activity change, negative = inhibition” value is reported as inactive: 2.6%. In the case of `CCc1ccccc1NC(=O)CCCN1C(=O)COc2ccc(C)cc21`, the “outcome” value is reported as “inactive”. For `CCOc1ccc(-c2cccc(NS(=O)(=O)c3ccc(Cl)s3)c2)nn1`, the “activity change, negative = inhibition” value was inactive: 12.3%. For `Cc1ccc(NC(=O)N2CCN(c3nnc(C)c4c(C)n(-c5ccccc5)nc34)CC2)c(Cl)c1`, the “outcome” value was “inactive”. For `Cc1ccc(S(=O)(=O)c2nc(-c3ccccc3)oc2N2CCCCCC2)cc1`, the “activity change, negative = inhibition” value was inactive: -2.06%. In the case of `COc1ccc2cc(-c3cn4c(n3)sc3cc(F)ccc34)c(=O)oc2c1`, the “activity change, negative = inhibition” value is reported as inactive: -8.03%. For `Cc1cccc(OCC(=O)N(Cc2cccc(Cl)c2)Cc2ccco2)c1C`, the “activity change, negative = inhibition” value was inactive: -23.5%. With `COc1cccc(C(=O)NCC(c2ccc(N(C)C)cc2)N2CCOCC2)c1OC` (stereo not drawn) the “activity change, negative = inhibition” value was inactive: 0.88%. In the case of `Cc1ccccc1CSc1nc(-c2ccccc2)nc2c1Cc1c(CO)cnc(C)c1O2`, the “activity change, negative = inhibition” value is reported as inactive: 8.45%. With `COc1ccc(/C=C/c2onc(C)c2S(=O)(=O)N2CCC(C(=O)N3CCC(C)CC3)CC2)cc1` the “activity change, negative = inhibition” value was inactive: -22.1%. For `CC1CCN(S(=O)(=O)c2ccc3c(c2)N(CC(=O)N2CCN(c4ccc(Cl)cc4)CC2)C(=O)CO3)CC1`, the “activity change, negative = inhibition” value was inactive: 31.7%. For `CCOc1ccc(CCNC(=O)CCc2cn(Cc3ccc(C)cc3)c3ccccc23)cc1`, the “activity change, negative = inhibition” value was inactive: 2.48%. With `COc1cccc(C2=NN(C(C)=O)C(c3cn(-c4ccccc4)nc3-c3cccs3)C2)c1` (stereo not drawn) the “activity change, negative = inhibition” value was inactive: -5.21%. In the case of `CCCCNC(=O)CCn1c(=O)c2ccccc2n(Cc2cc(C)ccc2C)c1=O`, the “activity change, negative = inhibition” value is reported as inactive: -2.46%. With `CCOC(=O)c1c(S(=O)(=O)N2CCCC(C(=O)Nc3cc(C)ccc3OC)C2)c(C)n(C)c1C` (stereo not drawn) the “activity change, negative = inhibition” value was inactive: -0.581%. For `CC(C)CCNC(=O)N1CCN(S(=O)(=O)c2ccc3c(ccn3C)c2)CC1`, the “activity change, negative = inhibition” value was inactive: -3.93%. With `CCCC(=O)Nc1nnc(SCc2cc(=O)c3cc(C)ccc3[nH]2)s1` the “activity change, negative = inhibition” value was inactive: -6.14%. With `O=C(c1ccc(CSc2nc3ccncc3n2Cc2ccccc2F)cc1)N1CCCCCC1` the “activity change, negative = inhibition” value was inactive: 7.19%. With `COc1ccc2[nH]cc(CCNC(=O)Nc3ccc(F)cc3)c2c1` the “activity change, negative = inhibition” value was inactive: 4.52%. In the case of `Cc1ccc(C)c(N2CCN(C(=O)c3cc(S(=O)(=O)N4CCCCC4)cn3C)CC2)c1`, the “activity change, negative = inhibition” value is reported as inactive: -23.1%. With `CC(C[N+](C)(C)C)OC(N)=O` (stereo not drawn) the “activity change, negative = inhibition” value was inactive: 1.76%. With `CCCCN(CC)c1ncnc2c1sc1nc(N3CCOCC3)c3c(c12)CCCC3` the “outcome” value was “inactive”. For `Cc1ccc(C)c(S(=O)(=O)c2nnn3c2nc(N2CCCC2)c2sccc23)c1`, the “activity change, negative = inhibition” value was inactive: -1.84%. In the case of `CCc1ccccc1N1CC(c2nc3ccccc3n2CC(C)C)CC1=O` (stereo not drawn), the “activity change, negative = inhibition” value is reported as inactive: 7.84%. For `CC(C)c1ccc(Nc2cc(C(=O)NCCc3ccccc3)c3ccccc3n2)cc1`, the “outcome” value was “inactive”. In the case of `COc1ccc(Nc2oc(-c3ccc(COc4ccc(OC)cc4)o3)nc2C#N)cc1`, the “activity change, negative = inhibition” value is reported as inactive: -3.72%. In the case of `O=C(Cn1ncc2c3ccccc3n(Cc3ccc(Cl)cc3)c2c1=O)NCCCc1ccccc1`, the “activity change, negative = inhibition” value is reported as inactive: -11.9%. In the case of `Cc1oc(-c2ccc(C(=O)Nc3ccc(F)cc3F)cc2)nc1COc1ccccc1`, the “activity change, negative = inhibition” value is reported as inactive: 5.08%. In the case of `CC(=O)Nc1ccc(-n2cc3c(c2-c2ccc(C)cc2)c(=O)n(C)c(=O)n3C)cc1`, the “activity change, negative = inhibition” value is reported as inactive: -5.41%. In the case of `CC(C)(C)C1CCc2nc(NC(=O)COc3ccc(F)cc3)sc2C1` (stereo not drawn), the “activity change, negative = inhibition” value is reported as inactive: 1.27%. For `CCCCN(CC)CCCn1cnc2c([nH]c3ccc(Cl)cc32)c1=O`, the “outcome” value was “inactive”. With `CCC(=O)Nc1ccccc1-c1nc2ccccc2n(C(CC)C(=O)Nc2cccc(C(C)=O)c2)c1=O` (stereo not drawn) the “activity change, negative = inhibition” value was inactive: 13.5%. With `CCOc1nc(NC(=O)NS(=O)(=O)Oc2ccc(Cl)cc2)nc(-c2ccccc2)n1` the “activity change, negative = inhibition” value was inactive: -10.6%. In the case of `CCCC(=O)Oc1c(Sc2ccc(Cl)cc2)c(C)nn1-c1ccccc1`, the “activity change, negative = inhibition” value is reported as inactive: 0.851%. With `CCOc1ccc(C(C)C)cc1S(=O)(=O)Nc1cccc(-c2ccc(N3CCOCC3)nn2)c1` the “activity change, negative = inhibition” value was inactive: 5.16%. In the case of `CCN(C(=O)c1cc(S(=O)(=O)N2CCOCC2)cn1C)c1ccc(OC)cc1`, the “activity change, negative = inhibition” value is reported as inactive: 3.9%. With `Cc1ccc(NC(=O)C(Cc2ccccc2)NS(=O)(=O)c2ccc3c(c2)c(=O)n(C)c(=O)n3C)cc1` (stereo not drawn) the “outcome” value was “inactive”. With `Cc1ccc(CN2C(=O)c3ccccc3S(=O)(=O)c3ccc(C(=O)OCC4CCCO4)cc32)cc1` (stereo not drawn) the “activity change, negative = inhibition” value was inactive: -16.5%.
